Laboratory results: PubChem BioAssay AID588334 (Broad Institute, 2011)
Among all 300,000 compounds or so, about 2,300 (0.77%) were called active. The shares of active, inactive and inconclusive entries below differ from those in the screen.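 The calls were made as follows: active = mean activation of at least 80% with every replicate also reaching 80%; inconclusive = mean reaches 80% but some replicate falls short; inactive = the rest.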

experiment: MITF-driven TRPM1 luciferase induction in melanoma cells – cell-based, SK-MEL-5, single point, primary screen (AID 588334); settings: SK-MEL-5 TRPM1-promoter luciferase, 24 h; at 12.5 µM; active compounds read high; % of positive control, neutral wells = 0;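 also: 0% = neutral control wells and 100% = parthenolide positive control wells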

| Structure (SMILES) | activation |
| --- | --- |
| CC(C)Cc1nnc(NC(=O)c2ccc3c(c2)OCCO3)s1 | inconclusive: 80.7% |
| COc1ccc2cc(-c3cccnc3)ncc2c1 | active: 97.1% |
| O=C(Nc1nc(-c2ccco2)cs1)c1ccccc1 | inconclusive: 87.3% |
| CCN(CC(=O)Nc1ccc2c(c1)OCCO2)C(=O)c1ccc(C(F)(F)F)cc1 | active: 107% |
| O=c1oc2cc(Cl)ccc2n1CSc1nc2ccccc2s1 | inconclusive: 99.6% |
| Clc1ccc(N/N=C/c2cccnc2)cc1 | inconclusive: 81.9% |
| CSc1ncccc1C(=O)OCC(=O)c1ccccc1Br | inactive: 10.2% |
| O=C(Nc1ccccn1)c1ccc(Cl)c(S(=O)(=O)N2CCOCC2)c1 | inactive: -3.12% |
| CN(C)c1ccc(NC(=O)c2ccc(Cn3cc([N+](=O)[O-])cn3)cc2)cc1 | inactive: 44.3% |
| COc1ccc(CNC(=O)COc2ccccc2C(=O)c2cnn(-c3ccccc3)c2)cc1OC | inconclusive: 84.9% |
| Cc1cccnc1NC(=O)c1ccc2c(c1)OCCO2 | inactive: 38% |
| Cc1cc2ncc(-c3ccc(Cl)cc3)c(N)n2n1 | inconclusive: 83.3% |
| O=c1c(-c2nc3ccccc3s2)cccn1Cc1ccccc1 | inconclusive: 85.7% |
| CC(=O)c1ccc2oc3ccccc3c(=O)c2c1 | active: 80.2% |
| Cc1ccc(C)c(N2CCN(C(=O)CCc3nc(-c4ccccc4C(F)(F)F)no3)CC2)c1 | inactive: 72.3% |
| Fc1ccc(C2NC(=S)NC3=C2N2CCC3CC2)cc1 (stereo not drawn) | inactive: -3.58% |
| CC(C)Oc1ccc(C(=O)NC2=NCCS2)cc1 | inactive: 25.9% |
| CCOC(=O)c1nn(-c2ccc(C)c(C)c2)cc1O | inconclusive: 88.9% |
| COc1ccc(CCNC(=O)CNC(=O)c2nn(-c3ccc(OC)c(OC)c3)c(=O)c3ccccc23)cc1OC | inactive: 17.6% |
| CCSc1n[nH]c2nc3c(c(=O)n12)C1(CCCCC1)Cc1ccccc1-3 | inactive: -7.89% |
| CS(=O)(=O)N1N=C(c2ccc(Br)cc2)CC1c1ccc2c(c1)OCO2 (stereo not drawn) | inconclusive: 81.2% |
| Cc1ccc(NC(=O)C(=O)NC2CCCCC2)cc1 | inconclusive: 81% |
| CCCN1C(=O)C(=O)N(CC(=O)c2cc(C)n(C3CC3)c2C)C1=O | active: 88.9% |
| CC(=O)c1cccc(NC(=O)Nc2ccc3c(c2)OCO3)c1 | active: 119% |
| COc1cccc(NC(=O)C(=O)NCc2ccncc2)c1 | inconclusive: 83% |

| Structure (SMILES) | activation |
| --- | --- |
| COc1cccc2[nH]c(C(=O)NCCc3ccccc3)cc12 | active: 110% |
| Cc1ccc(Nc2ncnc3ccccc23)cc1 | inconclusive: 80.7% |
| Cc1cc(Cl)ccc1OCCCC(=O)N1CCCCC1 | active: 99.7% |
| CCOc1ccc(/C=C/C(=O)N(CC)CC(=O)Nc2ccc3c(c2)OCCO3)cc1OCC | inactive: 2.12% |
| O=C(NCCc1ccccn1)c1ccc(OC2CCN(CCc3ccccc3)CC2)cc1 | active: 80.5% |
| Cc1ccc(OCCCSc2ncccn2)cc1C | inconclusive: 82% |
| Cc1ccccc1OCC(=O)OCC(=O)c1cc(C)n(C2CC2)c1C | inactive: 5.9% |
| CCCS/C(N)=N/N=C/c1ccccc1O | inconclusive: 83.9% |
| O=C(NCC1CC1)Nc1ccc(Cl)cc1 | inconclusive: 80.4% |
| CC1CCN(C(=O)c2ccc(-c3ccccc3Cl)o2)CC1 | active: 110% |
| CCOc1ncccc1C(=O)N1CCN(c2ccc(C(F)(F)F)cn2)CC1 | inactive: -7.95% |
| Cc1ccc(N(O)C(=O)NCCCCNC(=O)N(O)c2ccc(C)cc2)cc1 | inconclusive: 96% |
| O=[N+]([O-])c1ccc2c(c1)nc1n2CCN(C2CCCCC2)C1 | inconclusive: 84.6% |
| Cc1ccc2c(c1)COc1c3ccc(C(=O)N4CCOCC4)cc3nn1-2 | inconclusive: 86.4% |
| COc1ccc(C(=O)Nc2cc3c4c(c2)CC(=O)N4CCC3)c(OC)c1 | active: 86.5% |
| Cc1cccc(C(=O)Nc2ccn(C)n2)c1 | inconclusive: 83.7% |
| CC(=O)c1cc(F)ccc1OCC(=O)Nc1ccc2c(c1)OCO2 | inconclusive: 82.9% |
| CC1Oc2ccccc2N(CC(=O)NCc2ccccc2)C1=O (stereo not drawn) | inactive: 34.5% |
| O=C(Nc1ccc(Oc2ccccc2)cc1)c1ccco1 | inconclusive: 86% |
| COc1ccccc1OCCNC(=O)c1ccc2c(c1)CCC2 | inconclusive: 83.1% |
| COc1ccc(C(=O)c2ccc(CC#N)s2)cc1 | inconclusive: 85.3% |
| CC1CCC(NC(=O)N(CCCl)N=O)CC1 (stereo not drawn) | inconclusive: 81.4% |
| Cc1cccc(C(=O)Oc2ccc(/C=N/O)cc2)c1 | active: 127% |
| COc1cc([N+](=O)[O-])c2ncsc2c1 | inactive: 7.32% |
| CSc1nc2ccc(NC(=O)C3CCCO3)cc2s1 (stereo not drawn) | inconclusive: 81.8% |

| Structure (SMILES) | activation |
| --- | --- |
| COc1cc(/C=N/Nc2ccc(C(=O)O)cc2)cc(OC)c1OC | inconclusive: 82.3% |
| O=C(Nc1ncc(Cc2ccccc2)s1)C1COc2ccccc2O1 (stereo not drawn) | inconclusive: 81.7% |
| CCn1ccnc1CN(C)C(=O)c1cc(COc2ccccc2SC)on1 | inconclusive: 83.7% |
| CCOC(=O)CC(=O)CSc1nc2ccc(C)cc2cc1C#N | inactive: 73.6% |
| O=C(O)CN1C(=O)CSC1=S | inconclusive: 83.7% |
| O=C(Nc1ccc(OC(F)F)c(Cl)c1)c1ccccn1 | inconclusive: 83.1% |
| COc1ccc(N2CC(C(=O)Nc3cccc(S(=O)(=O)N4CCCC4)c3)CC2=O)c(OC)c1 (stereo not drawn) | inactive: 7.67% |
| CC(Sc1ccccc1F)C(=O)Nc1ccc2c(c1)OCCO2 (stereo not drawn) | active: 89.2% |
| Cc1ccc2nc(-c3ccc(SCC(=O)Nc4ccc5c(c4)OCCO5)nc3)[nH]c2c1 | inconclusive: 80.2% |
| O=C(NCCC1=CCCCC1)NC12CC3CC(CC(C3)C1)C2 | inconclusive: 81.9% |
| Cc1cc(NC(=O)CSc2nc3cc(Cl)ccc3s2)no1 | inactive: -13.8% |
| Fc1cccc2sc(N3CCCC3)nc12 | active: 86.1% |
| O=C(NNS(=O)(=O)c1ccc(Cl)cc1)c1cccc(S(=O)(=O)N2CCOCC2)c1 | inactive: -6.48% |
| CC(O)CNc1ncnc2cc(-c3ccc(F)cc3)sc12 (stereo not drawn) | inconclusive: 85.5% |
| COc1ccc(Cl)cc1C(Nc1cccnc1)c1ccc2cccnc2c1O (stereo not drawn) | inactive: -27.2% |
| Cc1ccccc1N1CCN(C(=O)c2ccc(Oc3ccc(C(F)(F)F)cn3)cc2)CC1 | inactive: 4.85% |
| NC(=O)c1ccccc1NC(=O)COc1ccc(Cl)cc1 | inconclusive: 80.3% |
| CCN1C(=Nc2ccc(Cl)cc2)SC/C1=C\C(=O)OC | inconclusive: 84.7% |
| Cn1cccc1C(=O)C(=O)Nc1ccc(F)c(F)c1 | active: 103% |
| Cc1ccc(Nc2nc(COC(=O)C3CC3)cs2)cc1 | inconclusive: 85.3% |
| COc1cc(/C=N/NC(=O)CN2CCCCC2)ccc1OCc1ccc(Br)cc1 | inconclusive: 102% |
| O=C(COC(=O)/C=C/c1ccco1)Nc1ncc(C(F)(F)F)cc1Cl | inactive: 2.96% |
| O=C(CCN1C(=O)c2cccc3cccc(c23)C1=O)N1CCOCC1 | active: 82.8% |
| Cc1ccc(NC(=O)c2ccc(OC(=O)COc3ccc(Cl)cc3C)cc2)cc1 | inconclusive: 85.4% |
| O=C(Nc1ccc2oc(-c3ccccc3)nc2c1)c1cccnc1 | inconclusive: 84.2% |

| Structure (SMILES) | activation |
| --- | --- |
| O=c1[nH]c2ccc(NCc3ccc(OCc4ccccc4Cl)cc3)cc2[nH]1 | active: 82.6% |
| CNc1ccc(/C=C(\C#N)c2ccccn2)cc1[N+](=O)[O-] | inconclusive: 85.1% |
| Cc1cccnc1NC(=S)NCCc1ccccc1 | inconclusive: 95.3% |
| COc1cc(/C=N/NC(=O)c2cccc([N+](=O)[O-])c2)ccc1OCc1ccccc1 | inconclusive: 80.8% |
| CC(C)(C)OC(=O)N1CCC(C(=O)Nc2ccc3c(c2)CCC3)CC1 | inconclusive: 80.2% |
| COc1cccc(CN(C)C(=O)c2ccc(COc3ccc(Cl)cc3)cc2)c1OC | inconclusive: 83.3% |
| O=C(CNCc1ccccc1Cl)Nc1ccc2c(c1)OCCO2 | inconclusive: 89% |
| CCCOc1ccc(-c2c(=O)n(OCc3ccc([N+](=O)[O-])cc3)c3ccccc3[n+]2[O-])cc1 | inconclusive: 88.4% |
| N/C(=N\OC(=O)COc1ccc(Cl)cc1Br)c1ccncc1 | active: 92% |
| Cc1oncc1C(=O)Nc1ccc2ccccc2c1 | inactive: 22.3% |
| COCC(=O)Nc1c(C(=O)Nc2ccc3c(c2)OCCO3)oc2ccccc12 | active: 91.6% |
| CC(=O)c1sc(NCc2ccc(C)cc2)nc1C | inconclusive: 99.9% |
| c1ccc(CN2CCN(C3=Nc4cccc5cccc3c45)CC2)cc1 | inconclusive: 84.9% |
| Cn1c(CN2CCCC2)nc2cc(NC(=O)Nc3ccccc3)ccc21 | inconclusive: 80.5% |
| CC(=O)Cn1cnc2sc(-c3ccccc3)cc2c1=O | active: 88% |
| Cc1cc(NC(=O)CSc2nc(-c3cccs3)cc(C(F)(F)F)n2)no1 | inactive: -34.3% |
| COc1ccccc1N1CCN(C2=Nc3cccc4cccc2c34)CC1 | active: 94.6% |
| CCCCN1CCc2c([nH]c3c(C)cccc23)C1=O | active: 92.5% |
| COc1ccc(NC(=O)c2ccc(C)o2)c([N+](=O)[O-])c1 | inconclusive: 83.5% |
| Cc1ccn2cc(C(=O)Nc3nnc(C)s3)nc2c1 | inconclusive: 88.9% |
| COC(=O)c1sc(NC(=O)c2cc3c(s2)CCCC3)nc1C | inconclusive: 80.4% |
| Brc1ccc(-c2nnc(-c3cccnc3)o2)cc1 | inconclusive: 83.6% |
| CCOC(=O)c1c(C)[nH]c(C(=O)OCc2ccccc2F)c1C | inconclusive: 81.8% |
